Measured values published in PubChem BioAssay AID1240 (Sanford-Burnham Center for Chemical Genomics, 2008).
Hit rate of the full screen: of about 50,000 compounds, about 800 (1.6%) showed an effect of 50% or more. The list shows a part of the results.

These compounds were tested against Bcl-2-like protein 10 (Homo sapiens) (UniProt Q9HD36) (assay: Phenotype converters, Bcl-B/TR3 peptide binding displacement, primary biochemical FP (AID 1240;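 also: 0% = Bcl-B with tracer peptide and DMSO and 100% = tracer peptide lacking Bcl-B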)). Settings: GST-Bcl-B / FITC-TR3 peptide fluorescence polarization; stronger effect = higher value; compound at 3.75 mg/L.
Chain of UniProt Q9HD36 (Q9HD36 whole entry, looked up): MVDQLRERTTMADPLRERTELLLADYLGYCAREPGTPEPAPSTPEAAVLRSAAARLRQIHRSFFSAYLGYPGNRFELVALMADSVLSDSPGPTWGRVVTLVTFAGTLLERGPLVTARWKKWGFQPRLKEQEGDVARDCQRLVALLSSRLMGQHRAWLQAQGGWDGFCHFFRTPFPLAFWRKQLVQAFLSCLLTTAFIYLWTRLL

Row | SMILES | displacement [%]
1 | CC(=C\c1ccccc1)/C=C1/SC(=O)N(c2ccc(Cl)cc2)C1=O | 2.3
2 | Cc1cc(C(F)(F)F)nn1CC(=O)Nc1ccc(OC(F)(F)F)cc1 | -1.9
3 | Cc1ccc(/C=C2\C(=O)NC(=O)N(c3ccc(Cl)cc3)C2=O)cc1[N+](=O)[O-] | -2.2
4 | Cc1ccc(C2=C/C(=C\c3ccc(C)c([N+](=O)[O-])c3)C(=O)O2)cc1 | 9
5 | Oc1ccc(NC(=S)N=Nc2c(O)[nH]c3ccc(Br)cc23)cc1 | 11.6
6 | Cc1ccc(N=Cc2cccc(C)c2O)c(O)c1 | 4.8
7 | O=C(Nc1cccc2ccccc12)c1ccc(-c2cccc([N+](=O)[O-])c2)o1 | 12
8 | CCCCOC(=O)c1ccc(NC(=O)CSc2ccccn2)cc1 | -19.3
9 | O=C(CSc1ncn(-c2ccccc2)n1)c1ccc(Cl)cc1 | 13.1
10 | COc1ccc(C(=O)N2CCN(Cc3ccc(SC)cc3)CC2)cc1 | -7.7
11 | CCCC(=O)Nc1ccc(NC(=O)c2ccc(C)c([N+](=O)[O-])c2)cc1 | 9.9
12 | O=C(CCN1C(=O)/C(=C\c2cccs2)SC1=S)Nc1cccc(C(=O)O)c1 | 34.9
13 | CCOC(=O)c1ccc(NC(=O)CC)cc1 | 4.7
14 | O=C(Nc1ccc(NC(=S)NC(=O)c2ccco2)cc1)c1cccc(Cl)c1 | 13.6
15 | O=C(/C=C/c1ccccc1)Nc1ccc(Cl)cn1 | 16.2
16 | O=C(CCSCc1ccc([N+](=O)[O-])cc1)OCC(=O)c1ccccc1 | -2.3
17 | CC1CCC(N2CCN(C(=O)c3ccc(F)cc3)CC2)CC1 (configuration not stated) | 9.5
18 | O=C1C2C(c3ccccc3)OC3(C(=O)c4ccccc4C3=O)C2C(=O)N1c1ccc([N+](=O)[O-])cc1 (configuration not stated) | 10.3
19 | O=C(N/N=C/c1ccc(Cl)c(Cl)c1)C1CC(=O)N(c2ccccc2)C1 (configuration not stated) | -9.3
20 | CCCCOc1ccc(NC(=O)CSc2nnc(C)s2)cc1 | -8.6
21 | O=C1c2ccccc2NC(c2cccc(O)c2)N1c1ccc(Cl)cc1 (configuration not stated) | 14.9
22 | Cc1ccc(Nc2nc(Nc3cccc([N+](=O)[O-])c3)nc(SC(=S)N3CCOCC3)n2)cc1 | 7.1

Row | SMILES | displacement [%]
23 | Cc1ccc(C)c(-c2csc(NC(=O)c3cccs3)n2)c1 | -8.9
24 | Cc1c(NC(=O)c2cc3nc(-c4ccc(Cl)cc4)cc(C(F)(F)F)n3n2)c(=O)n(-c2ccccc2)n1C | 10.5
25 | COc1c(Cl)ccc(Cl)c1C(=O)NCCc1ccccc1 | -18.4
26 | COC(=O)c1c(-c2ccc(F)cc2)csc1NC(=O)C1CC=CCC1C(=O)O (configuration not stated) | -2.9
27 | CCOc1ccccc1NC1=C(Cl)C(=O)N(c2ccc(Cl)cc2)C1=O | 14.9
28 | CC(C)(C)c1ccc(/C=N/NC(=O)c2ccc(Cl)cc2O)cc1 | 7.3
29 | Cc1noc(NS(=O)(=O)c2ccc(NC(=O)c3ccc(Cl)s3)cc2)c1C | -8.8
30 | CCn1c2ccccc2c2cc(C=Nc3ccccc3C(N)=O)ccc21 | -8.4
31 | O=C(Nc1c(C(=O)N2CCCC2)cnn1-c1ccccc1)c1cccc(F)c1 | 3.5
32 | CCc1ccccc1NC(=O)c1c(NC(=O)c2ccco2)sc2c1CCCC2 | -0.5
33 | Cc1ccc(-c2csc(NC(=O)C3CCCCC3C(=O)O)n2)c(C)c1 (configuration not stated) | 3.8
34 | Cn1c(=O)c2c(nc3cc(-c4ccccc4)cc(-c4ccccc4)n32)n(C)c1=O | 5.9
35 | O=C(Nc1ncc(Cc2cccc([N+](=O)[O-])c2)s1)c1ccc(Br)cc1 | 13.6
36 | COc1cc(/C=C(\C#N)c2nc3ccc(C)cc3[nH]2)cc(OC)c1O | -65.6
37 | Cc1cccc(N2C(=O)Cn3c2nc2c3c(=O)n(C)c(=O)n2C)c1 | -5.8
38 | CCCCOC(=O)c1ccc2c(c1)C1C=CCC1C(c1cccc([N+](=O)[O-])c1)N2 (configuration not stated) | -2.5
39 | COC(=O)CN1C(=O)C(=O)c2ccccc21 | -4.5
40 | O=C(c1ccccc1F)N1CCN(c2cccc(Cl)c2)CC1 | 6.5
41 | Cc1ccccc1C=Nc1ccc(O)cc1 | -0.9
42 | S=C(NCCSCc1ccccc1Cl)Nc1ccccc1 | 0.1
43 | COc1ccc(/C(N)=N/OC(=O)COc2ccccc2C)cc1 | 4.7
44 | COc1cccc(C(=O)N2CCN(C(=O)c3cccc(Cl)c3)CC2)c1 | -4.6

Row | SMILES | displacement [%]
45 | O=C(NCCCCNc1ccc(C(F)(F)F)cc1[N+](=O)[O-])c1ccc(Cl)cc1 | -6.4
46 | O=C1OC(c2ccc(Br)cc2)=N/C1=C/c1ccc(Cl)cc1Cl | -5.4
47 | Cc1cc(C)cc(C(=O)Nc2nnc(C)s2)c1 | 14.6
48 | O=C(N/N=C/c1ccc(OC(=O)c2ccc([N+](=O)[O-])cc2)cc1)c1cccnc1 | 6.3
49 | Cc1cccc(-c2nc3cc(NC(=O)Cc4ccccc4)ccc3o2)c1 | 4.5
50 | COC(=O)c1cc(C(=O)N2CCN(Cc3ccccc3)CC2)cc([N+](=O)[O-])c1 | 4.8
51 | Cc1ccc(-c2nc(-c3cc4cc([N+](=O)[O-])cc(Br)c4oc3=O)cs2)c(C)c1 | 95.2
52 | O=C(Nc1cccc2c1CCCC2)c1cccc([N+](=O)[O-])c1 | -5.1
53 | O=C(CSc1ncn[nH]1)Nc1ccccc1Br | -0.1
54 | COc1cccc(C(=O)Nc2cccc3ccccc23)c1 | -9.7
55 | Cc1ccc(C(=O)NNC(=O)c2ccccc2C)cc1 | -13.9
56 | Cc1ccc(/C(O)=C2/C(=O)C(=O)N(CCCn3ccnc3)C2c2ccc([N+](=O)[O-])cc2)cc1 (configuration not stated) | -21.4
57 | CC(=O)Nc1nc(C)c(-c2csc(Nc3ncccn3)n2)s1 | 9.9
58 | CC(=O)Oc1ccc(C(=O)Nc2cc(Cl)ccc2C(=O)O)cc1 | -10.9
59 | O=C1S/C(=C\c2ccc(Br)o2)C(=O)N1c1ccc(Cl)cc1 | 88.9
60 | COc1ccc2c(c1)N(C(N)=S)C(C)(C)C=C2C | -0.3
61 | O=C(NC(Cc1ccc(O)cc1)C(=O)O)/C(=C/c1ccccc1)NC(=O)c1ccccc1 (configuration not stated) | 14
62 | NS(=O)(=O)c1ccc(CNC2CC(=O)N(c3ccc(I)cc3)C2=O)cc1 (configuration not stated) | -1.7
63 | COC(=O)c1c(NC(=O)/C=C/C(=O)O)sc(C)c1-c1ccc(C)cc1 | -2.7
64 | O=C(NCc1ccccc1)c1nn2c(c1Cl)NC(c1ccc(Cl)cc1)CC2C(F)(F)F (configuration not stated) | 1.1
65 | COc1ccc(CC(=O)NNC(C)=O)cc1OC | 6.6
66 | COc1cccc(CN2CCN(C(=O)c3ccccc3OC)CC2)c1 | -15.8

Row | SMILES | displacement [%]
67 | O=C(NC(Cc1ccc(OC(=O)OCc2ccccc2)cc1)C(=O)O)OCc1ccccc1 (configuration not stated) | -3.3
68 | O=C(Nc1nc(-c2cccc3ccccc23)cs1)c1ccc(Cl)cc1 | -3.4
69 | O=C(/C=C/c1ccccc1Cl)c1c(-c2ccccc2)c2cc(Cl)ccc2[nH]c1=O | -1.6
70 | CC(=O)c1ccc(NC(=O)/C=C/c2ccc(C(C)C)cc2)cc1 | -0.2
71 | COC(=O)C(C)Oc1ccc2c3c(c(=O)oc2c1)CCC3 (configuration not stated) | 6.3
72 | CCn1nnnc1-c1ccc(OC)c(S(=O)(=O)Nc2ccc(Br)cc2)c1 | 58.3
73 | O=C1NC2=Nc3ccccc3SC(c3ccccc3)=C2C(c2ccc(O)cc2)N1 (configuration not stated) | 27.6
74 | O=C1NC(=O)N(c2ccccc2F)C(=O)/C1=C/c1ccc(I)o1 | 34.5
75 | c1cc(NCc2ccc3c(c2)OCO3)cc(-c2nc3ccccc3s2)c1 | -6
76 | CCOc1cc(/C=C2/SC(=S)N(C)C2=O)cc(Cl)c1OCCOc1ccccc1C | 2.3
77 | COc1cccc(OC)c1C(=O)Nc1sc(C)c(C)c1C(N)=O | 10.1
78 | Cc1ccc(OCC(=O)Nc2ccc3oc(-c4ccc(F)cc4)nc3c2)cc1C | -21
79 | Cc1cccc(Cn2cc(/C=C(\C#N)C(=O)Nc3ccc(F)cc3)c3ccccc32)c1 | 8
80 | COC(=O)C1=NN(C(=O)c2ccccc2)C(O)(C(C)(C)C)C1 (configuration not stated) | -3.6
81 | COc1ccc(OC)c2c(C)cc(C)nc12 | 3.3
82 | CN(C)CCCN1C(=O)CSC1c1ccc(Cl)cc1 (configuration not stated) | 0
83 | COc1ccc(N2C(=O)C3C4C=CC(C4)C3C2=O)cc1 (configuration not stated) | -0.8
84 | Oc1ccc(Br)cc1/C=N/Nc1cc(N2CCCC2)nc(N2CCCC2)n1 | 37.5
85 | O=C(c1ccc(Cl)c(Cl)c1)N1CCN(c2ccc([N+](=O)[O-])c(N3CCOCC3)c2)CC1 | 8.5
86 | COC(=O)C1=C(C)N=c2s/c(=C\c3ccccc3F)c(=O)n2C1c1ccc(OC)cc1 (configuration not stated) | 19.7
87 | CCC(C)(C)C1CCc2[nH]nc(C(=O)NN)c2C1 (configuration not stated) | -12
88 | CC(C)C(=O)Nc1ccc(NC(=O)c2ccco2)cc1 | -8.5

Row | SMILES | displacement [%]
89 | O=c1oc2cc(O)c([N+](=O)[O-])cc2cc1-c1csc(-c2ccc(Br)cc2)n1 | -17.4
90 | CC(C)(C)c1cc(C(=O)N/N=C\c2ccncc2)n[nH]1 | 1.4
91 | CCOC(=O)C1=C(C)N=C2SCC(=O)N2C1c1cccc(OC)c1OC (configuration not stated) | -5.2
92 | Nn1cnnc1N/N=C/C=C/c1ccccc1 | -7.2
93 | COc1cccc2sc(NC(=O)c3cccc(Cl)c3)nc12 | 13.2
94 | CCc1nnc(NS(=O)(=O)c2ccc(NS(=O)(=O)c3ccccc3)cc2)s1 | 14.1
95 | O=C(Nc1ccc(F)c([N+](=O)[O-])c1)c1ccc2c(c1)OCCO2 | 11.2
96 | CC1(C)CC(=O)C2=C(C1)NC1=C(C(=O)CC(C)(C)C1)C2c1ccccc1OCc1ccccc1 | -0.4
97 | N#CCCN1CCN(c2cc(N3CCOCC3)c(F)cc2[N+](=O)[O-])CC1 | -11
98 | Cc1csc(/C(C#N)=C/c2sccc2C)n1 | -12
99 | COc1ccc(C(=O)Nc2ccc3oc(-c4ccccc4Cl)nc3c2)cc1Br | 1.2
100 | CC(=O)NNc1nc(-c2ccccc2)c2cc(Cl)ccc2n1 | -7.4
101 | Cc1ccc(N(Cc2ccc(C(=O)Nc3ccc(C)c(Cl)c3)cc2)S(C)(=O)=O)cc1C | -5.2
102 | CC(CCC(=O)Nc1ccc(F)cc1)CC(=O)Nc1ccc(F)cc1 (configuration not stated) | 2.7
103 | Cc1cccc(N2C(=O)/C(=C/c3ccc(Br)cc3)SC2=S)c1C | 9.2
104 | COC(=O)CN(c1c(C)cccc1C)S(C)(=O)=O | 3.3
105 | Clc1ccccc1CSc1nnnn1-c1ccccc1 | 9.2
106 | COC(=O)C1=C(C)NC(=S)N(C(C)=O)C1c1ccc(Cl)cc1 (configuration not stated) | 4.9
107 | Cc1cccc(NC(=O)C(O)C(O)C(=O)Nc2cccc(C)c2)c1 (configuration not stated) | -1
